Assay results as given in PubChem BioAssay AID1030 (National Center for Advancing Translational Sciences (NCATS), 2008).
Among all 220,000 compounds or so, about 16,000 (7.3%) were called active. The shares of active, inactive and inconclusive entries below differ from those in the screen. Calls come from the whole dose curve; as a rule, active = well fitted inhibition curve with a large enough effect (not every such curve was filed as active); inconclusive = small, poorly fitted or top-dose-only effect, or another doubt; inactive = no such curve, though single readings can be large or run the other way. No potency is given beside an inconclusive call; the fits are too rough.

biological target: Aldehyde dehydrogenase 1A1 (Homo sapiens) (UniProt P00352); assay: qHTS Assay for Inhibitors of Aldehyde Dehydrogenase 1 (ALDH1A1); conditions: Purified ALDH1A1, NADH fluorescence, propionaldehyde substrate; series mostly up to 75.3 µM; activity, negative = inhibition: at the top concentration;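 for activity, negative = inhibition: plate controls were no enzyme wells and a reference inhibitor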
UniProt P00352, sequence (P00352 whole entry, looked up): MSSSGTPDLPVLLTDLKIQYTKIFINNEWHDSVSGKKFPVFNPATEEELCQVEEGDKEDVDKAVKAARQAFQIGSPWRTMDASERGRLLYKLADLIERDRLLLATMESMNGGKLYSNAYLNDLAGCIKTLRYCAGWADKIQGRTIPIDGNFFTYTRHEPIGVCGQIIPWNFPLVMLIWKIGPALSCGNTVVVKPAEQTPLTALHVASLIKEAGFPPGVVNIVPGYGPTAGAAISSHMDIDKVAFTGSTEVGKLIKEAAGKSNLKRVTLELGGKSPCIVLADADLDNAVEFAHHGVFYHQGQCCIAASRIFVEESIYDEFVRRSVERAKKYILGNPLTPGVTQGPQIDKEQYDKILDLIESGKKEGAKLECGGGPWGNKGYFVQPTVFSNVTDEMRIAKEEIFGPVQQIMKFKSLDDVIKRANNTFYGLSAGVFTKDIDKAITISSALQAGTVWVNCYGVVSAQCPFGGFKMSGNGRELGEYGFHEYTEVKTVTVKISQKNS
Potency is the fitted concentration of half-maximal effect; tags give direction and shape of the fitted curve.

Row | SMILES | activity, negative = inhibition | Potency
1 | CCCCNC(=O)C1CC(=O)N(CCC(C)C)C1 (stereo unspecified) | inactive: -1.64% | 
2 | [O-]/C(=C(\C(=S)Nc1ccc(SC(F)F)cc1)[n+]1ccccc1)c1cc(Cl)ccc1Cl |  | inconclusive [inhibitor, single point]
3 | Cc1cc(-c2nnco2)c(C)n1-c1ccccc1 | inactive: 2.28% | 
4 | COc1ccc(C(=O)CCC(C)(C)[N+](=O)[O-])cc1OC |  | active: 8.91 µM
5 | CCn1nc(C(=O)Nc2cccc3ccccc23)c(Cl)c1Cl |  | inconclusive [inhibitor, single point]
6 | CCc1ccc2nc3n[nH]c(N)c3cc2c1 |  | inconclusive [inhibitor, single point]
7 | COc1cc(C(=O)N2CCC(NC(=O)C(Cc3ccccc3C)NC(C)=O)CC2)cc(OC)c1OC (stereo unspecified) | inactive: 3.43% | 
8 | CCOc1ccccc1/C=N/NC(=O)c1cccc(S(=O)(=O)N(CC)CC)c1 |  | inconclusive [inhibitor, single point]
9 | CCn1c(SCC(=O)N2c3ccccc3Sc3ccccc32)nnc1-c1ccco1 |  | inconclusive [inhibitor, single point]
10 | C/C(=N/NC(=O)c1sc(NS(=O)(=O)c2ccccc2)nc1C)c1ccccc1 |  | inconclusive [inhibitor, single point]
11 | COc1ccccc1OCc1ccc(C(=O)N2CCN3CCCC3C2)cc1 (stereo unspecified) |  | inconclusive [inhibitor, single point]
12 | O=C(O)CC/C(=C\c1cccc(NC(=O)c2ccccc2Cl)c1)c1nc2ccccc2s1 |  | inconclusive [inhibitor, partial curve]
13 | CCOc1ncccc1C(=O)OCC(=O)N1CCN(S(=O)(=O)c2ccccc2)CC1 | inactive: 5.88% | 
14 | COc1ccc(-c2cc(C(F)(F)F)nc(SCC(=O)Nc3ccc4c(c3)OCO4)n2)cc1OC |  | inconclusive [inhibitor, single point]
15 | COc1ccc(C2C=C(c3cccs3)Nc3nc(CCCO)nn32)cc1 (stereo unspecified) |  | inconclusive [inhibitor, partial curve]
16 | Cc1c(-n2c(SCC(=O)N(C)C3CCS(=O)(=O)C3)nc3ccccc3c2=O)c(=O)n(-c2ccccc2)n1C (stereo unspecified) |  | active: 25.1 µM
17 | CCn1cnc2cc(NCc3cccc(OC)c3O)ccc21 |  | inconclusive [inhibitor, single point]
18 | O=C(NC1CCCCC1)c1ccc(S(=O)(=O)NCc2cccnc2)cc1 | inactive: 0.619% | 
19 | CC(C)NC(=S)NCc1cccs1 | inactive: -4.04% | 
20 | COC(=O)c1cc(OC)nc2ccc(Br)cc12 | inactive: 0.195% | 
21 | COc1ccc2nc(Nc3nc4cc5c(cc4s3)OCCO5)sc2c1 |  | inconclusive [inhibitor, single point]
